Results published in PubChem BioAssay AID743255 (National Center for Advancing Translational Sciences (NCATS), 2014).
The whole screen tested about 390,000 compounds, of which about 910 (0.23%) were called active. Not shown: some 5% with an inconclusive outcome. The call rests on the fitted dose curve; in most records, active means well fitted inhibition curve with a large enough effect; inconclusive means small, poorly fitted or top-dose-only effect; inactive means no such curve, though single readings can be large or run the other way. The entries are a selection whose mix differs from that of the whole data set.

target: Ubiquitin carboxyl-terminal hydrolase 1 (Homo sapiens) (UniProt O94782); assay: Inhibitors of USP1/UAF1: Primary Screen; conditions: recombinant USP1/UAF1, Ub-Rhodamine cleavage fluorescence; activity change, negative = inhibition: at 57.1 µM (top of the series); further: nearly all actives have a fitted effect of over 60% in size
Outline: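 USP1/UAF1 complex (1 nM) preincubated 15 min at room temperature with compound, then Ub-Rho substrate (150 nM final) added. Kinetic fluorescence at 480/540 nm over 6 reads at 60 s intervals; 50 mM HEPES pH 7.8, 0.5 mM EDTA, 0.1 mg/ml BSA, 1 mM TCEP, 0.01% Tween-20.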
On the % scale 0 is the no-effect control and ±100 the full control effect; potency means the concentration at half of the fitted maximal effect.

UniProt O94782, sequence (O94782 whole entry, looked up): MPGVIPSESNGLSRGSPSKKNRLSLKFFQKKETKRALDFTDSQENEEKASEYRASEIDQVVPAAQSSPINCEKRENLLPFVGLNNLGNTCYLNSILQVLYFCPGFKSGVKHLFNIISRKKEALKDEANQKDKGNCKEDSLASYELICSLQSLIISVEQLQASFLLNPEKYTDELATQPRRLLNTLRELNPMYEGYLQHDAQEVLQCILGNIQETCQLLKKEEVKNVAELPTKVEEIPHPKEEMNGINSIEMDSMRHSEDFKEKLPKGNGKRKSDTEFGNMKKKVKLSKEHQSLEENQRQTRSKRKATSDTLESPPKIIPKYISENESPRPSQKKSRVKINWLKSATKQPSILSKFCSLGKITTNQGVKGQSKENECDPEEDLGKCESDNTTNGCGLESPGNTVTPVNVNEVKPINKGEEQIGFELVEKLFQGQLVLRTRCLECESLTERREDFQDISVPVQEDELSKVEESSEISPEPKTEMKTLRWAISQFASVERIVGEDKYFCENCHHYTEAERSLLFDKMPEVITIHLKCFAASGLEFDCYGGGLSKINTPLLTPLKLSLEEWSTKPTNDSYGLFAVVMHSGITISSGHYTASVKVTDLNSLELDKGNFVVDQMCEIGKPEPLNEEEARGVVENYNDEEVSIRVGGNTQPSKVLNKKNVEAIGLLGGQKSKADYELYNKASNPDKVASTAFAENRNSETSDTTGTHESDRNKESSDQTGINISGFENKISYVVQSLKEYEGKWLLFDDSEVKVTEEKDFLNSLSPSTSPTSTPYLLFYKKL

Activity change, negative = inhibition, inactive:
C[C@@H]1CN([C@@H](C)CO)C(=O)CCCn2nncc2CO[C@@H]1CN(C)S(=O)(=O)c1ccc2c(c1)OCCCO2 -29%
Oc1[nH]c2ccccc2c1N=Nc1ccccc1Cl 52.6%
CCN(CC)c1ccc2cc(-c3nc(-c4cc5ccccc5oc4=O)cs3)c(=O)oc2c1 42.5%
O=C(C[C@@H]1C/C=C\C[C@H](NC(=O)OCC2c3ccccc3-c3ccccc32)C(=O)OC[C@H]2CCCN2C1=O)N[C@H](CO)Cc1ccccc1 -29.1%
C=CC[C@@H](CC(=O)N[C@H](CO)Cc1ccccc1)C(=O)N[C@H](COC(=O)[C@@H](CC=C)Cc1ccc(F)cc1)Cc1c[nH]c2ccccc12 -23%
C[C@@H]1C=C(C(=O)O)O[C@H](OCc2ccc(CO)cc2)C1 -29.6%
C[C@@H]1CN([C@@H](C)CO)C(=O)CCCn2nncc2CO[C@H]1CN(C)C(=O)c1ccccc1 -16.3%
O=C(NC1CC1)C1=C[C@H](c2ccccc2)C[C@H](OCc2ccc(CO)cc2)O1 3.35%
C[C@@H]1CN([C@@H](C)CO)C(=O)CCCn2cc(nn2)CO[C@H]1CN(C)C(=O)c1cc(-c2ccccc2)on1 -18.7%
C[C@H](CO)N1C[C@H](C)[C@@H](CN(C)S(=O)(=O)c2ccc(-n3cccn3)cc2)OCc2cn(nn2)CCCC1=O -18.8%
NC(=O)C(=O)N/N=C/c1c2ccccc2cc2ccccc12 34.6%
O[C@H]1CN(CC2CCCCC2)[C@@H](c2ccccc2)C[C@@H]1n1cc(C2CC2)nn1 -4.35%
C[C@H]1CCC[C@@]2(O[C@@H](CCO)C[C@H](O)[C@H]2O)O1 -22.5%
COC(C/C=C\C(=O)[C@H](C)OCc1ccccc1)OC -24.1%
CC(C)(C)S(=O)(=O)N1C[C@H]2CC/C=C\C/C=C\2[C@@H]1CCO -25.7%
C[C@@H]1CN([C@@H](C)CO)C(=O)CCCn2nncc2CO[C@@H]1CN(C)C(=O)C1CCCCC1 -12%
C=CC[C@H](CC(=O)N[C@H](CO)Cc1ccccc1)C(=O)N[C@@H](COC(=O)[C@H](CC=C)CC(=O)OC(C)(C)C)Cc1c[nH]c2ccccc12 -13.3%
Cc1ccc(NC(=O)c2c(C(=O)Nc3ccccc3)sc3nc(C)cc(=O)n23)cc1 -19.2%
CC(=O)C[C@H](O)CC(=O)[C@@H]1OC(=O)CCCCC/C=C/Cc2ccccc21 11.5%
C[C@H](CO)N1C[C@H](C)[C@@H](CN(C)S(=O)(=O)c2ccccc2)Oc2c(NC(=O)Nc3ccc(C(F)(F)F)cc3)cccc2C1=O -31.6%
CCOC(=O)CN1C(=O)N[C@@H](CCc2ccccc2)[C@@H](C(=O)OC)[C@H]1C -9.12%
CCc1cccc(NC(=O)c2cccc3c2C(=O)N(C2CCCCC2)C3)c1 -25.4%
CCOC(=O)Cn1c(=N)n(CCOc2ccc(OC)cc2)c2ccccc21 -5.01%
CN(C(=O)COC(=O)c1ccc([N+](=O)[O-])cc1N)c1ccccc1 37.9%
C[C@@H]1CCC[C@@]2(O[C@@H](CCO)C[C@H](O)[C@H]2O)O1 -20.3%
CCOC(=O)[C@@H]1[C@H]2COc3ccccc3[C@@H]2N2C(=O)N(c3ccc(Cl)cc3)C(=O)[C@@]12C -17.6%
C[C@H](CO)N1C[C@H](C)[C@H](CN(C)C(=O)c2ccc3ccn(C)c3c2)OCc2cnnn2CCCC1=O -16.2%
Cc1cc(C)cc(NC(=O)Cn2ncn3c(cc4ccccc43)c2=O)c1 3.94%
O=C(COCc1cc(-c2ccc3c(c2)OCO3)on1)N1CCN(c2cccc(Cl)c2)CC1 -4.72%
CCc1nonc1NC(=O)c1oc2ccc(C)cc2c1C -3.06%
CCN(CC)c1ccc2c(c1)oc(=O)c1c(Cl)cc(=O)oc12 250%
C[n+]1ccccc1/C=N/O -24.7%
COc1ccc2c(c1)cc1c(=O)n(CC(=O)NCCCOC(C)C)nc(C)n12 -17.8%
CCOC(=O)[C@@H]1[C@H]2COc3ccccc3[C@H]2N2C(=O)N(c3ccc(OC)cc3)C(=O)[C@]12C -25.6%
CC(=O)C[C@@H](O)CC(=O)[C@H]1OC(=O)CCCCCCc2ccccc21 -4.91%
COc1ccc(CNC(=O)O[C@@H]2C[C@H]3C(=O)N(c4ccccc4)C(=O)[C@H]3[C@@]3(CN(S(=O)(=O)c4ccc(C)cc4)C[C@H]3C)[C@@H]2O)cc1OC 79.6%
CCN1C(=O)[C@H]2[C@@H](c3ccc(-c4cccc(Cl)c4)c(OC)c3)N3CCCC[C@@]3(C(=O)OC)[C@H]2C1=O -28.7%
O=C(C[C@@H]1C/C=C\CC[C@@H](Cc2ccc(F)cc2)C(=O)OC[C@@H]2CCCN2C1=O)N[C@H](CO)Cc1ccccc1 -5.38%
O=C(C[C@H]1C/C=C\CC[C@H](Cc2ccc(F)cc2)C(=O)OC[C@H]2CCCN2C1=O)N[C@H](CO)Cc1ccccc1 -14.5%
O=C(NCc1nc2ccccc2[nH]1)C1=C[C@H](c2ccccc2)C[C@H](OCc2ccc(CO)cc2)O1 -3.88%
Cc1ccc(NC(=O)c2oc3ccc(S(=O)(=O)N4CCC5(CC4)OCCO5)cc3c2C)cc1C 0.91%
C[C@H]1CN([C@@H](C)CO)C(=O)CCCn2nncc2CO[C@H]1CN(C)C(=O)Nc1ccc2c(c1)OCO2 7.95%
O=C(NCc1ccccc1)C1CCCN(S(=O)(=O)c2cccc3nsnc23)C1 (configuration not stated) -18%

Potency, active:
O=c1[nH]c(Nc2ccccc2)cc2ccccc12 2.51 µM
N#C/C(=C\c1ccc(-c2ccc(Cl)c(C(=O)O)c2)o1)c1nc2ccccc2[nH]1 31.6 µM
O=C1S/C(=C\c2ccc(N3CCOCC3)o2)C(=O)N1Cc1c(F)cccc1Cl 3.98 µM
O=C(Nc1cccc(C(F)(F)F)c1)c1ccc2nc(-c3ccco3)c(-c3ccco3)nc2c1 28.2 µM
O=C1C(Cl)=C(Nc2ccc3cn[nH]c3c2)C(=O)c2ccccc21 15.8 µM
N#CC1=C2SCN(C3CCCCC3)CN2C(=O)CC1c1c(F)cccc1Cl (configuration not stated) 31.6 µM
O=C(NC1(O)C(=O)c2ccccc2C1=O)c1c(Cl)cccc1Cl 28.2 µM
O=C1C=CC(=O)c2c(O)c(N3CCN(CCOCCO)CC3)c(Br)c(O)c21 2 µM
C[n+]1ccc(/C=C/c2c[nH]c3ccc(F)cc23)cc1 28.2 µM
